According to PubChem BioAssay (NCI):
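Assay format: 96-well plates, 48-hour exposure. Here, GI50 denotes the concentration required for 50% inhibition of growth. The concentration for full growth arrest is given as TGI.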 Numbered stars: 1 amine (or outer) side, 2 acyl side, 3 side chain; on linkers, the order of the positions; unused ones are H or OH. Bridge positions count the residues as written; N and C are the ends. Square brackets hold non-standard residues; d marks the D form. Peptide text beside a SMILES is read from it. I, II: the chains in the order shown. ξ: configuration not given here. Actinocin(1to9) = Cc1c2oc3c(C)ccc(C(=O)[*:2])c3nc-2c(C(=O)[*:1])c(N)c1=O; Pro(4-oxo) = O=C1CN[C@H](C(=O)O)C1; Thr(3ξ) = CC(O)[C@H](N)C(=O)O; NMeV = CN[C@H](C(=O)O)C(C)C; Sar = CNCC(=O)O

Test system: NCI-H322M lung
Experiment: NCI anticancer screen, dose series, 48 h

Row | Structure (SMILES) | GI50 [µM] | TGI [µM]
1 | Cc1c2oc3c(C)ccc(C(=O)N[C@@H]4C(=O)N[C@H](C(C)C)C(=O)N5CCC[C@H]5C(=O)N(C)CC(=O)N(C)[C@@H](C(C)C)C(=O)OC4C)c3nc-2c(C(=O)N[C@@H]2C(=O)N[C@H](C(C)C)C(=O)N3CC(=O)C[C@H]3C(=O)N(C)CC(=O)N(C)[C@@H](C(C)C)C(=O)OC2C)c(N)c1=O (stereo not given in full) (I: [Thr(3ξ)][dV][Pro(4-oxo)][Sar][NMeV] / II: [Thr(3ξ)][dV]P[Sar][NMeV]; ester I:1-I:C, II:1-II:C; linker I:N-II:N via Actinocin(1to9)) | < 0.01 | < 0.018
2 | COc1ccc(CCN2C(=O)/C(=C/c3csc(C#N)n3)SC2=S)cc1OC | 89.1 | > 100
3 | Nc1ccc(-c2ccc3ncnc(N4CCc5cc(F)c(Cl)cc54)c3c2)cn1 | 1.35 | 8.69
4 | O=C(c1ccccc1)c1ccc2nc(-c3ccccc3Br)[nH]c2c1 | 5.5 | 18.2
5 | CC(=O)Oc1ccccc1C(=O)Oc1ccc(C(=O)/C=C/c2ccncc2)cc1 | 19.4 | 79.2
